From article PMC9765665
These are yes or no findings as the source states them, for the method shown. In cells and extracts the contact can be indirect. Some entries that bind do so weakly or less than the wild type.

Sequences of proteins named here, by UniProt entry; tags and fusion partners are left off.
UniProt P03129: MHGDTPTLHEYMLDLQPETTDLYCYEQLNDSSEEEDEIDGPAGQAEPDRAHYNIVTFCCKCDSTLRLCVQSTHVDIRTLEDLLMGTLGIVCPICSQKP
UniProt P06788: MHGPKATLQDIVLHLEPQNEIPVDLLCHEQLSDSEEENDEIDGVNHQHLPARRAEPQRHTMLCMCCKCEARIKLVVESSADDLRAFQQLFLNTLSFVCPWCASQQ
UniProt Q5T4S7: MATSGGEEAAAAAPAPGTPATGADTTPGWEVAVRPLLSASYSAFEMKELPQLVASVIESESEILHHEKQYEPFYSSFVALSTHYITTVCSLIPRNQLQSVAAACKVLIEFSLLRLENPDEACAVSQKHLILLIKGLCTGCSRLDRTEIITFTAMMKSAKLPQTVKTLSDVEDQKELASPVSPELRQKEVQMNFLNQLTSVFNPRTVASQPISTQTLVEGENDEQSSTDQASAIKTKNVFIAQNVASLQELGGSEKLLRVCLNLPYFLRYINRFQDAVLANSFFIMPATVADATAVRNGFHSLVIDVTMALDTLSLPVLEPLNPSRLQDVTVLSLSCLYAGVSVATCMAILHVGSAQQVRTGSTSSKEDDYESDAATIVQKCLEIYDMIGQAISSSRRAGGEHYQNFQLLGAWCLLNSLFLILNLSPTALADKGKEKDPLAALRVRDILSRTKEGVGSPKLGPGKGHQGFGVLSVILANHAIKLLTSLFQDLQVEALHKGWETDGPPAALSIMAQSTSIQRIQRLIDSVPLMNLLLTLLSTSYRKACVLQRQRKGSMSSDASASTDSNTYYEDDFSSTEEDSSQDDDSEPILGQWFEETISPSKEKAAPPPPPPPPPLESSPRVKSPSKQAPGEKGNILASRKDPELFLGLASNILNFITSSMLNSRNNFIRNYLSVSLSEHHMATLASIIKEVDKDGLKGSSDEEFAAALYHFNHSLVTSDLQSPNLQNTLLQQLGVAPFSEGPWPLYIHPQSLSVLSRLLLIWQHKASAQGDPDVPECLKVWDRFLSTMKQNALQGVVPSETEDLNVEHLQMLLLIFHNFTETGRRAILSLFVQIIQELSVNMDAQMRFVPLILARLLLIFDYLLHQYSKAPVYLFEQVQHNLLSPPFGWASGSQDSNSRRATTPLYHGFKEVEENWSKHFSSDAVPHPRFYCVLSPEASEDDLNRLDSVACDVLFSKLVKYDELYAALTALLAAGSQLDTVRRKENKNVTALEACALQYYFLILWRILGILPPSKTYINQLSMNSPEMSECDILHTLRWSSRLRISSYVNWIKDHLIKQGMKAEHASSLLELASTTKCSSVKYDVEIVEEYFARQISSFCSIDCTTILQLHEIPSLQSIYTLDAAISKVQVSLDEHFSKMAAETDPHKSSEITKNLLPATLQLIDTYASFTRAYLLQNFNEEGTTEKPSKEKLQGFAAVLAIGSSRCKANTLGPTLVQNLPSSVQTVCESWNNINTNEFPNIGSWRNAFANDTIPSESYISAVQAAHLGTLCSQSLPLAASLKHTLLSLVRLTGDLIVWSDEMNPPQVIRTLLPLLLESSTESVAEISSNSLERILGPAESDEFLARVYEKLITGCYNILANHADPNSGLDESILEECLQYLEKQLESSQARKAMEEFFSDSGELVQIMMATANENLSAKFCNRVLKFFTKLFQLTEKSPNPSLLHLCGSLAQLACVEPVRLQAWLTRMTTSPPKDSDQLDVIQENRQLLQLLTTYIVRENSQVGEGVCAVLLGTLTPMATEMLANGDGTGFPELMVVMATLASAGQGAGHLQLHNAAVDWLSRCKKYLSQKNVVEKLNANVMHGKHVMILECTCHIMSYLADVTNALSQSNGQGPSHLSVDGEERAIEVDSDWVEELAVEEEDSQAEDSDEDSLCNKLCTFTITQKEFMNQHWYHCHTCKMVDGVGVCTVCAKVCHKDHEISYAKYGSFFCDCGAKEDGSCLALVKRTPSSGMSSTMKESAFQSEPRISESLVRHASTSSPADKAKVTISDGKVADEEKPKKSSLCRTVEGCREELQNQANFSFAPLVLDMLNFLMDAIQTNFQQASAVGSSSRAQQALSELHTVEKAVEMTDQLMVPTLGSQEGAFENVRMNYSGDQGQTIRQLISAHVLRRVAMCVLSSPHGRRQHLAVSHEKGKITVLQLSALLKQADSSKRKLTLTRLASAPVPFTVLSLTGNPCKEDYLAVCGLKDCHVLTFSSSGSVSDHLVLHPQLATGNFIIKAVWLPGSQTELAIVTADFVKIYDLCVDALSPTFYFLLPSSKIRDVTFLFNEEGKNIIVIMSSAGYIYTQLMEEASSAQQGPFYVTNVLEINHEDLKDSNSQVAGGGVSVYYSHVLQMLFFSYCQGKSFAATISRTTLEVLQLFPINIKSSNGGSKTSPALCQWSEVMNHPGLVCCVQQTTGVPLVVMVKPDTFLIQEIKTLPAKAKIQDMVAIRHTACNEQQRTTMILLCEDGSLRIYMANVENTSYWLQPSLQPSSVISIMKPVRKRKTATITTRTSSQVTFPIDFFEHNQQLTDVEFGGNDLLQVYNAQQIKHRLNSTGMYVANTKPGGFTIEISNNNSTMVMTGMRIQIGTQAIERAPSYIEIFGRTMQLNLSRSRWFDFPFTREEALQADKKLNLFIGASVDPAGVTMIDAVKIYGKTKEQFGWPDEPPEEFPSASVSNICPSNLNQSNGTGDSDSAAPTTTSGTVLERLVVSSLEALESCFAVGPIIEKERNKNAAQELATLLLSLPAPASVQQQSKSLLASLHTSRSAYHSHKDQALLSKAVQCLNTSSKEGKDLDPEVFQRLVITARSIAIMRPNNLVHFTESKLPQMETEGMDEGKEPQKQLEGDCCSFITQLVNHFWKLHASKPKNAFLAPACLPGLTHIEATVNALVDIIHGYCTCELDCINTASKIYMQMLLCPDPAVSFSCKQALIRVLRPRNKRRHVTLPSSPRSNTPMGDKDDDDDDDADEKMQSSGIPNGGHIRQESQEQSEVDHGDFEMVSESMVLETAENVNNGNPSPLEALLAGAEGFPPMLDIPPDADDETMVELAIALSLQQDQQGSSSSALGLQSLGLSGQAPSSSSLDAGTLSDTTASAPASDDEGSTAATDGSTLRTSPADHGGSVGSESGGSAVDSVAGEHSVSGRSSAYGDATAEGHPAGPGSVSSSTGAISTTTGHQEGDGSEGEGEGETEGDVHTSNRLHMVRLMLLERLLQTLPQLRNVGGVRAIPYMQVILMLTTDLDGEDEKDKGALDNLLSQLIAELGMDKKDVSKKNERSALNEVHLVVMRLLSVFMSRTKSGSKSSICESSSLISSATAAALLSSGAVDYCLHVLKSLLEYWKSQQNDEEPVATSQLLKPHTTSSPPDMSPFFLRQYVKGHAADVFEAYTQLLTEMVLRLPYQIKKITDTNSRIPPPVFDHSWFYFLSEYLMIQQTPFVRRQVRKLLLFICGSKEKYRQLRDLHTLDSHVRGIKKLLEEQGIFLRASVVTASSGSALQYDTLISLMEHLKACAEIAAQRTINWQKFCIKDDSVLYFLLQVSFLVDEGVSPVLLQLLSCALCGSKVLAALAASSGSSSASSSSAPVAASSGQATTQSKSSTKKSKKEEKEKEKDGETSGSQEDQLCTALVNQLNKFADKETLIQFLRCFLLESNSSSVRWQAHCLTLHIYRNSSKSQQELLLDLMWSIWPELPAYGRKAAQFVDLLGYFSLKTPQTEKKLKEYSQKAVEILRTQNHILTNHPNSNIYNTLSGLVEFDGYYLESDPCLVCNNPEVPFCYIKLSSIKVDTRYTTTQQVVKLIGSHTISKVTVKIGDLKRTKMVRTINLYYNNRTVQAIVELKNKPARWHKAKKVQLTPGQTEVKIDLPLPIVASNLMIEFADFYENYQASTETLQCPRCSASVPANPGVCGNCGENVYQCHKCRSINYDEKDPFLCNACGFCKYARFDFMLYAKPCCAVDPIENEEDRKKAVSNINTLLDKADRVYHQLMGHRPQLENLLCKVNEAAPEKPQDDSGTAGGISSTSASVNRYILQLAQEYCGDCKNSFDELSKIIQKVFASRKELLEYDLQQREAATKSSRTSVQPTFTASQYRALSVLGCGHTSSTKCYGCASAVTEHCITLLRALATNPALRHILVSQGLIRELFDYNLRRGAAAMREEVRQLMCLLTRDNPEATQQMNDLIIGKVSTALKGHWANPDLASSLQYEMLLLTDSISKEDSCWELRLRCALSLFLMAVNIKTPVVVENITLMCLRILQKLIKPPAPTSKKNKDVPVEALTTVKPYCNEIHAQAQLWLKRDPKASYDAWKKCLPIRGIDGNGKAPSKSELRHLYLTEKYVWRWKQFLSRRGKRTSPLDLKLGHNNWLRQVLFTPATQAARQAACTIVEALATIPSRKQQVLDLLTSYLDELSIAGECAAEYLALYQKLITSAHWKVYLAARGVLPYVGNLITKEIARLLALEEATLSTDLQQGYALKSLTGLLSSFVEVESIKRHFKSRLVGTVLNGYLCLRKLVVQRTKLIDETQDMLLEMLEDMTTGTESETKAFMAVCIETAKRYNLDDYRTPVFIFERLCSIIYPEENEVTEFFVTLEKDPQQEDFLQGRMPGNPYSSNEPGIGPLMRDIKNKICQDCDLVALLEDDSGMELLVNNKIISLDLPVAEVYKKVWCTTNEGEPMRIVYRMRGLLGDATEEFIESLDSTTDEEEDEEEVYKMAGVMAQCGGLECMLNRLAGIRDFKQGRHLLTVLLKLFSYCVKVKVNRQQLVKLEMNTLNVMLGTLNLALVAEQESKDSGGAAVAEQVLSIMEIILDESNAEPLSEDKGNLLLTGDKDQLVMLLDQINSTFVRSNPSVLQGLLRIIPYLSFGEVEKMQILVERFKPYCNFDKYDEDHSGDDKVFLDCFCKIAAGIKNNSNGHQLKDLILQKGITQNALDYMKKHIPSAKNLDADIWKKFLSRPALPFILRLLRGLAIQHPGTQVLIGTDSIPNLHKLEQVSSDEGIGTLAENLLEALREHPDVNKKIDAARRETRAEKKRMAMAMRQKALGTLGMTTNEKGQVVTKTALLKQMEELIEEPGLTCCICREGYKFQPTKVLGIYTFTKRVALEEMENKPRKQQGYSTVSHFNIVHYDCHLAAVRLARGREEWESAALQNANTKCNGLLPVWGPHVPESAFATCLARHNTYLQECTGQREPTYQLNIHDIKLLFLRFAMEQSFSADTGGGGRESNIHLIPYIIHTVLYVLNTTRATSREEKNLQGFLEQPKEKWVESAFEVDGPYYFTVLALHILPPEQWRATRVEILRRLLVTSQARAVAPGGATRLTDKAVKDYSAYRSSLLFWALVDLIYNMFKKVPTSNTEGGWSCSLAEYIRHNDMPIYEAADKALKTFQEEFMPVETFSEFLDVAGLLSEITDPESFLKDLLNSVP
UniProt Q7Z7L7: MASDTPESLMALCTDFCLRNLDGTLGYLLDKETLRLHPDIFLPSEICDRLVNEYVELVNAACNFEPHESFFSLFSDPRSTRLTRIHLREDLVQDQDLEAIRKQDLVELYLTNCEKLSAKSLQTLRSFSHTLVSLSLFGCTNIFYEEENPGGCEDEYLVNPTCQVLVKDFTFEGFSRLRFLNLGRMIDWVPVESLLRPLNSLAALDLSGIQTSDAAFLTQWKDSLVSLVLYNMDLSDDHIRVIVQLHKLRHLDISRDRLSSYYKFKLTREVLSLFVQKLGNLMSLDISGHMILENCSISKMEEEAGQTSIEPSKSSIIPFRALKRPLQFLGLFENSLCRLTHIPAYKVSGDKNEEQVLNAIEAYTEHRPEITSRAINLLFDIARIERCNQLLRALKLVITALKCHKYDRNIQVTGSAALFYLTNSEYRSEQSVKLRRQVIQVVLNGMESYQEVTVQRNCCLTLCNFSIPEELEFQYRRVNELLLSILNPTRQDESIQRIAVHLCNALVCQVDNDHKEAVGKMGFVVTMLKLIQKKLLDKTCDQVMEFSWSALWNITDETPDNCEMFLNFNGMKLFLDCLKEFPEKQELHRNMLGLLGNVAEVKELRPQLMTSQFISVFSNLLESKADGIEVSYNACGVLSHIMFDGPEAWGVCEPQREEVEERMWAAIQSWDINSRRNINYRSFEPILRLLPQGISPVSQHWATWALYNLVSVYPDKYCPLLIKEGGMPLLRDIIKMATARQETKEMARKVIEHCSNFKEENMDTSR

B1: retinoblastoma tumor suppressor (RB1) (protein, UniProt P06400 1-928)
chain: MPPKTPRKTAATAAAAAAEPPAPPPPPPPEEDPEQDSGPEDLPLVRLEFEETEEPDFTALCQKLKIPDHVRERAWLTWEKVSSVDGVLGGYIQKKKELWGICIFIAAVDLDEMSFTFTELQKNIEISVHKFFNLLKEIDTSTKVDNAMSRLLKKYDVLFALFSKLERTCELIYLTQPSSSISTEINSALVLKVSWITFLLAKGEVLQMEDDLVISFQLMLCVLDYFIKLSPPMLLKEPYKTAVIPINGSPRTPRRGQNRSARIAKQLENDTRIIEVLCKEHECNIDEVKNVYFKNFIPFMNSLGLVTSNGLPEVENLSKRYEEIYLKNKDLDARLFLDHDKTLQTDSIDSFETQRTPRKSNLDEEVNVIPPHTPVRTVMNTIQQLMMILNSASDQPSENLISYFNNCTVNPKESILKRVKDIGYIFKEKFAKAVGQGCVEIGSQRYKLGVRLYYRVMESMLKSEEERLSIQNFSKLLNDNIFHMSLLACALEVVMATYSRSTSQNLDSGTDLSFPWILNVLNLKAFDFYKVIESFIKAEGNLTREMIKHLERCEHRIMESLAWLSDSPLFDLIKQSKDREGPTDHLESACPLNLPLQNNHTAADMYLSPVRSPKKKGSTTRVNSTANAETQATSAFQTQKPLKSTSLSLFYKKVYRLAYLRLNTLCERLLSEHPELEHIIWTLFQHTLQNEYELMRDRHLDQIMMCSMYGICKVKNIDLKFKIIVTAYKDLPHAVQETFKRVLIKEEEYDSIIVFYNSVFMQRLKTNILQYASTRPPTLSPIPHIPRSPYKFPSSPLRIPGGNIYISPLKSPYKISEGLPTPTKMTPRSRILVSIGESFGTSEKFQKINQMVCNSDRVLKRSAEGSNPPKPLKKLRFDIEGSDEADGSKHLPGESKFQQKLAEMTSTRTRMQKQKMNDSMDTSNKEEK

Assays:
[1] = target: wild-type HPV16 E7-Flag-HA (HPV16) (UniProt P03129); experiment: SEC + co-IP; N/Tert-1 HPV16 E7-Flag-HA lysate (50 mM Tris pH 7.8, 150 mM NaCl, 0.5% NP-40) fractionated on Superose 6 10/300 GL; even-numbered 500-uL fractions subjected to anti-HA immunoprecipitation and Western blot
[2] = target: wild-type HPV18 E7-Flag-HA (HPV18) (UniProt P06788); experiment: co-IP; anti-HA agarose immunoprecipitation of tagged E7 from lysates of stable N/Tert-1 keratinocytes, Western blot of endogenous partners
[3] = target: wild-type HPV16 E7-Flag-HA (HPV16) (UniProt P03129); experiment: as above
[4] = target: wild-type HPV16 E7-Flag-HA (HPV16) (UniProt P03129); experiment: co-IP; anti-HA or control IgG immunoprecipitation from lysates of SiHa, Caski, HeLa and C33A cells stably expressing HPV16 E7-Flag-HA, Western blot for ZER1
[5] = target: wild-type HPV16 E7-Flag-HA (HPV16) (UniProt P03129); experiment: co-IP; anti-HA agarose immunoprecipitation of tagged E7 from lysates of stable N/Tert-1 keratinocytes, Western blot of endogenous partners; remark: listed apart in the source

Row | Molecule | binding [1] | binding [2] | binding [3] | binding [4] | binding [5]
1 | ubiquitin ligase UBR4 (from UniProt Q5T4S7 1-5183) | binds | – | – | – | –
2 | ZER1 (from UniProt Q7Z7L7 1-766) | binds | no binding | binds | binds | –
3 | B1 | binds | – | – | – | binds
